Source: patent US12485299B2, “Antibody-immune agonist conjugate and applications thereof” (GENEQUANTUM HEALTHCARE (SUZHOU) CO., LTD., priority 2021, dated 2025)

Tests used:
[1] = system: Claudin 18.2-negative NCI-N87 parental cells and human PBMC; test: TNFα induction in co-culture of human PBMC with Claudin 18.2-negative NCI-N87 parental cells; type: cell-based; details: Claudin 18.2-negative NCI-N87 parental cells:PBMC 1:5
Experimental: (§1) Human peripheral mononuclear cells were isolated from healthy blood donors using SepMate 50 and Lymphoprep (Stem Cell Technologies). The live cells was counted and the cell concentration was adjusted to 1.25×10^6/ml in RPMI1640 medium with 10% FBS. Tumor cells were detached by trypsin, and collected. The live cells was counted and the cell concentration was adjusted to 2.5×10^5/ml in RPMI1640 medium with 10% FBS. 12.5×10^4 human PBMC and 2.5×10^4 tumor cells (PBMC: tumor cells=5:1) were added into wells of 96 well plate, then the antibody or conjugate was added at indicated concentrations. The cell mixture was incubated with drugs for 18 hours, then the cell-free supernatant was collected for human TNFα ELISA.
(§2) Claudin 18.2 could also serve as an example of AIAC targets. To evaluate the activity of Claudin 18.2-targeted immunoconjugates, NCI-N87—Claudin 18.2 human gastric cancer cells overexpressing human Claudin 18.2 or parental NCI-N87 cells were co-cultured with human PBMC at a ratio of 1:5, and the test immunoconjugate (AC102-8-3-1 or AC201-1-3-1) or naked unmodified anti-Claudin 18.2 antibody at indicated concentrations were added, respectively. The isolation of human PBMC and experimental setting were similar to Effect Example 1.

[2] = system: NCI-N87-Claudin 18.2 human gastric cancer cells overexpressing human Claudin 18.2 and human PBMC; test: TNFα induction in co-culture of human PBMC with NCI-N87-Claudin 18.2 cells; type: cell-based; details: NCI-N87-Claudin 18.2:PBMC 1:5; compared with antibody Ab0098
Experimental: as §1, §2

[3] = system: NUGC4 human gastric cancer cells; test: In vivo anti-tumor efficacy of anti-Claudin 18.2-AIAC, NUGC4 model; details: 5 mg/kg intravenously on day 0 and 14, NUGC4 in BALB/c nude mice
Experimental: The in vivo anti-tumor efficacy of anti-Claudin 18.2-AIAC was evaluated using a NUGC4 model. One million of NUGC4 human gastric cancer cells were inoculated subcutaneously in the right flank in BALB/c nude mice to generate xenograft model. After tumor volume reaching 108 mm^3 on average, the tumor bearing mice were assigned and administered intravenously of the test anti-Claudin 18.2 conjugate (AC102-8-3-1) or the corresponding naked unmodified antibody at 5 mg/kg on day 0 and 14. The tumor volume was measured twice weekly with calipers.

B1: AC102-8-3-1 (conjugate)
light: DIVMTQSPSSLTVTAGEKVTMSCKSSQSLLNSGNQKNYLTWYQQKPGQPPKLLIYWASTRESGVPDRFTGSGSGTDFTLTISSVQAEDLAVYYCQNDYSYPFTFGSGTKLEIKRTVAAPSVFIFPPSDEQLKSGTASVVCLLNNFYPREAKVQWKVDNALQSGNSQESVTEQDSKDSTYSLSSTLTLSKADYEKHKVYACEVTHQGLSSPVTKSFNRGECGALPETGG
heavy: QVQLQQPGAELVRPGASVKLSCKASGYTFTSYWINWVKQRPGQGLEWIGNIYPSDSYTNYNQKFKDKATLTVDKSSSTAYMQLSSPTSEDSAVYYCTRSWRGNSFDYWGQGTTLTVSSASTKGPSVFPLAPSSKSTSGGTAALGCLVKDYFPEPVTVSWNSGALTSGVHTFPAVLQSSGLYSLSSVVTVPSSSLGTQTYICNVNHKPSNTKVDKRV[human IgG1 Fc not listed]
- TNFα production [1]: negligible induction of TNFα production at very high doses
- TNFα production [2]: higher TNFα production compared to antibody Ab0098
- anti-tumor activity (tumor volume) [3]: showed anti-tumor activity

B2: AC201-1-3-1 (conjugate)
light: DIVMTQSPSSLTVTAGEKVTMSCKSSQSLLNSGNQKNYLTWYQQKPGQPPKLLIYWASTRESGVPDRFTGSGSGTDFTLTISSVQAEDLAVYYCQNDYSYPFTFGSGTKLEIKRTVAAPSVFIFPPSDEQLKSGTASVVCLLNNFYPREAKVQWKVDNALQSGNSQESVTEQDSKDSTYSLSSTLTLSKADYEKHKVYACEVTHQGLSSPVTKSFNRGECGALPETGG
heavy: QVQLQQPGAELVRPGASVKLSCKASGYTFTSYWINWVKQRPGQGLEWIGNIYPSDSYTNYNQKFKDKATLTVDKSSSTAYMQLSSPTSEDSAVYYCTRSWRGNSFDYWGQGTTLTVSSASTKGPSVFPLAPSSKSTSGGTAALGCLVKDYFPEPVTVSWNSGALTSGVHTFPAVLQSSGLYSLSSVVTVPSSSLGTQTYICNVNHKPSNTKVDKRV[human IgG1 Fc not listed]
- TNFα production [1]: negligible induction of TNFα production at very high doses
- TNFα production [2]: higher TNFα production compared to antibody Ab0098

B3: Ab0098: naked unmodified anti-Claudin 18.2 antibody (light chain SEQ ID No. 21, heavy chain SEQ ID No. 22) (antibody)
heavy: QVQLQQPGAELVRPGASVKLSCKASGYTFTSYWINWVKQRPGQGLEWIGNIYPSDSYTNYNQKFKDKATLTVDKSSSTAYMQLSSPTSEDSAVYYCTRSWRGNSFDYWGQGTTLTVSSASTKGPSVFPLAPSSKSTSGGTAALGCLVKDYFPEPVTVSWNSGALTSGVHTFPAVLQSSGLYSLSSVVTVPSSSLGTQTYICNVNHKPSNTKVDKRV[human IgG1 Fc not listed]
light: DIVMTQSPSSLTVTAGEKVTMSCKSSQSLLNSGNQKNYLTWYQQKPGQPPKLLIYWASTRESGVPDRFTGSGSGTDFTLTISSVQAEDLAVYYCQNDYSYPFTFGSGTKLEIKRTVAAPSVFIFPPSDEQLKSGTASVVCLLNNFYPREAKVQWKVDNALQSGNSQESVTEQDSKDSTYSLSSTLTLSKADYEKHKVYACEVTHQGLSSPVTKSFNRGEC
modifications: Ab0098 Heavy chain; Ab0098 Light chain
- anti-tumor activity (tumor volume) [3]: no anti-tumor activity
